Data from patent publication US20240317847A1 (Bayer, published 2024).
Changes are numbered by the printed parent chain. Values belong to the binder of their own block, whether it stands above or below them.

How the values were obtained:
murine IL-11 [1] = molecular target: T1, murine IL-11 (mouse, UniProt P47873 22-199); experiment: cell-based or functional assay
T1 sequence: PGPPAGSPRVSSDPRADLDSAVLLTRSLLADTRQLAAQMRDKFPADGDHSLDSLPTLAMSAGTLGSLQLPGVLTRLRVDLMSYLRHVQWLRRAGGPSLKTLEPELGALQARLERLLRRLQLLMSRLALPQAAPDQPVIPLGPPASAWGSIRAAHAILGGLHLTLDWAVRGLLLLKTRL

human IL-11 [2] = molecular target: T2, human IL-11 (human, UniProt P20809 22-199); experiment: cell-based or functional assay
T2 sequence: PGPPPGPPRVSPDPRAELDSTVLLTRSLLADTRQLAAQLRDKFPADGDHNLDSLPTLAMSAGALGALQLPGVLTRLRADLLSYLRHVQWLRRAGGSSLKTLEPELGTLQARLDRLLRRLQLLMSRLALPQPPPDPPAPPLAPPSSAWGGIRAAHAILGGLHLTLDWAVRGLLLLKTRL

rat IL-11 [3] = molecular target: T3, rat IL-11 (rat, UniProt Q99MF5 22-199); experiment: cell-based or functional assay
T3 sequence: T1 sequence with S50N, L84F, G94A, V137A, I138V

cynomolgus IL-11 [4] = molecular target: T4, cynomolgus IL-11 (cynomolgus, UniProt P20808 22-199); experiment: cell-based or functional assay
T4 sequence: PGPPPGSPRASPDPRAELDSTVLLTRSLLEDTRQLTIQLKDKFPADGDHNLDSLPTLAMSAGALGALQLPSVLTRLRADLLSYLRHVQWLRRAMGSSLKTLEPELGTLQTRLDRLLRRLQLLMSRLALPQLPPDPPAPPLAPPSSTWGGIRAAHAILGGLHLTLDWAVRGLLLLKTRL

human IL-11 [5] = molecular target: T2, human IL-11; experiment: Tri-complex ELISA, hIL-11 + mIL-11Ra-Fc + hgp130-Fc, inhibition of complex formation
Method: In the Tri-complex ELISA format IL-11 antibodies are tested for their ability to inhibit the formation of a complex consisting of murine or human gp130-Fc fusion protein, with murine or human IL-11, and a murine IL11RA-Fc fusion protein. The assay format was adapted according to FIG. 18 (a, b), depending on whether murine or human IL-11 IgG antibodies were tested.
(§1) IgG converted antibodies were subjected to the experimental assay procedure described in Example 19 and IC50 [M], respectively efficacy (%) were calculated accordingly.

murine IL-11 [6] = molecular target: T1, murine IL-11; experiment: Tri-complex ELISA, mIL-11 + mIL-11Ra-Fc + mgp130-Fc, inhibition of complex formation
Method: In a first step, 25 μl of goat anti human IgG (Sigma, #12136), diluted 1:1000 in coating buffer (Candor, #121125) was coated on the plate at 4° C. overnight. Next day, the plate was washed one time with 50 μl PBST and then blocked with 50 μl SmartBlock (Candor, #113125) for one hour at room temperature (RT). […] After three additional washes of the coated and blocked microtiter plate with PBS-T, 25 μl of each mixture were added and the assay plate was incubated for one hour at room temperature. After three additional washes, anti-mouse-gp130 biotinylated antibody (R&D, #BAF468) or anti-human gp130 biotinylated antibody (R&D, #BAF228), both 1:1000 in 10% SmartBlock PBS-T, was added and incubated for 1 hour at RT. After three additional washes, a Streptavidin-Peroxidase conjugate (Sigma, #S5512) 1:1000 in SmartBlock PBS-T was added and incubated for one hour at room temperature. After a final three washes, AmplexRed (Fisher Scientific, A12222), 1/1000 in PBS, 0,003% H₂O₂, was added as substrate and incubated for 15 min at RT in the dark. Then, the fluorescence was measured with a plate reader at 535/595 nm. Signals from dose responses were used to calculate IC50 values using GraphPad Prism software. Efficacy was calculated as [(signal measured at lowest antibody concentration−signal measured at the highest antibody concentration)×100] divided by (signal measured at lowest antibody concentration−signal measured in the absence of antibody at an IL11 concentration of 8.2E-11 [M]).
as §1

murine IL-11 [7] = molecular target: T1, murine IL-11; experiment: SPR (Biacore), 37 C, antibody captured via anti-Fc, IL-11 as analyte
Method: (§2) To assess the binding kinetics and affinity of anti-IL-11 bispecific antibodies as well as their species cross-reactivity profile, binding assays were conducted using surface plasmon resonance (SPR). […] Antibodies were captured either via anti-human Fc IgGs (“Human antibody capture kit”, Order No. BR100839, Cytiva) or via anti-mouse Fc IgGs (“Mouse antibody capture kit, Order No. BR100383, Cytiva) covalently amine coupled to a Series S CM5 sensor chip (Cytiva) depending on the isotype. The amine coupling was carried out according to the manufacturer's instructions using 1-ethyl-3-(3-dimethylaminopropyl) carbodiimide hydrochloride (EDC), N-hydroxysuccinimide (NHS) and ethanolamine HCl, pH 8.5 (“Amine Coupling Kit” BR-1000-50, Cytiva.). Human, mouse, cynomolgus or rat IL-11 was used as analyte at several dilutions within the concentration range from 0.05-200 nM. For binding assays with only one concentration 200 nM IL-11 was used. The sensor surface was regenerated with glycine pH 1.7 after each antigen injection. Obtained sensorgrams were double referenced (subtraction of reference flow cell signal and buffer injection) and were fitted to a 1:1 Langmuir binding model to derive kinetic data using the Biacore T200 Evaluation software or the Biacore Insight software.
(§3) If no value is reported, there was either no binding or very low binding and multiphasic binding behavior.

human IL-11 [8] = molecular target: T2, human IL-11; experiment: as above
Method: as §2, §3

rat IL-11 [9] = molecular target: T3, rat IL-11; experiment: as above
Method: as §2, §3

cynomolgus IL-11 [10] = molecular target: T4, cynomolgus IL-11; experiment: as above
Method: as §2, §3

murine IL-11 [11] = molecular target: T5, murine IL-11 (mouse, UniProt P47873 22-199); experiment: SPR, antibody captured, IL-11 as analyte
T5 construct: bought from Invigate; also called mIL-11; mIL11
T5 sequence: T1 sequence
Method: (§4) Antibodies were captured via anti-mouse Fc IgGs (“Mouse antibody capture kit, Order No. BR100383, Cytiva) covalently amine coupled to a Series S CM5 sensor chip (Cytiva). The amine coupling was carried out according to the manufacturer's instructions using 1-ethyl-3-(3-dimethylaminopropyl) carbodiimide hydrochloride (EDC), N-hydroxysuccinimide (NHS) and ethanolamine HCl, pH 8.5 (“Amine Coupling Kit” BR-1000-50, Cytiva.). Human IL-11 (Invigate, e.g., lot #C121021-19), and murine IL-11 (Invigate, e.g., lot #C210819-09) were used as analytes. […] Based on that experiment an IL-11 concentration range was chosen to optimally determine kinetics and affinity of anti-IL-11 antibodies in multicycle kinetics mode. The sensor surface was regenerated with glycine pH 1.7 after each antigen injection. Obtained sensorgrams were double referenced (subtraction of reference flow cell signal and buffer injection) and were fitted to a 1:1 Langmuir binding model to derive kinetic data using the Biacore T200 Evaluation software or the Biacore Insight software.
(§5) For the 2nd round of germlining, single reversions were then combined on DNA level, expressed and purified as described in Example 15, and tested by SPR as described in Example 16.

human IL-11 [12] = molecular target: T6, human IL-11 (human, UniProt P20809 22-199); experiment: SPR, antibody captured, IL-11 as analyte
T6 construct: bought from Invigate; also called hIL-11; hIL11
T6 sequence: T2 sequence
Method: as §4, §5

murine IL-11 [13] = molecular target: T5, murine IL-11; experiment: SPR, antibody captured, IL-11 as analyte; remark: listed apart in the source
Method: as §4
(§6) Deviations from closest human germlines in CDR regions and FW regions and potential CMC relevant residues in CDR regions were adjusted by site directed mutagenesis following standard molecular protocols or purchased from DNA synthesis providers. […]

human IL-11 [14] = molecular target: T6, human IL-11; experiment: SPR, antibody captured, IL-11 as analyte; remark: listed apart in the source
Method: as §4, §6

murine IL-11 [15] = molecular target: T5, murine IL-11; experiment: cell-based or functional assay; remark: listed apart in the source
human IL-11 [16] = molecular target: T6, human IL-11; experiment: cell-based or functional assay; remark: listed apart in the source
[17] = molecular target: T7, human IL-11 (Invigate, e.g., lot #C121021-19) (human, UniProt P20809 22-199); experiment: competition ELISA on biotinylated human IL-11 captured on a streptavidin plate; competitor: murine IgG TPP-18068 at constant 1E-08 M, detected with anti-mouse-POD
T7 construct: Bought protein; also called hIL-11; hIL11
T7 sequence: T2 sequence

Efficacy (%), Stat3 reporter gene assay (murine IL-11 [1]): 96.2% | IC50, Stat3 reporter gene assay (murine IL-11 [1]): 0.66 nM | Efficacy (%), Stat3 reporter gene assay (human IL-11 [2]): 98.4% | IC50, Stat3 reporter gene assay (human IL-11 [2]): 1.5 nM | Efficacy (%), Stat3 reporter gene assay (rat IL-11 [3]): 98.5% | IC50, Stat3 reporter gene assay (rat IL-11 [3]): 1.1 nM | Efficacy (%), Stat3 reporter gene assay (cynomolgus IL-11 [4]): 97.5% | IC50, Stat3 reporter gene assay (cynomolgus IL-11 [4]): 0.29 nM | Efficacy (%) (human IL-11 [5]): 78.8% | IC50 (human IL-11 [5]): 7 nM | Efficacy (%) (murine IL-11 [6]): 101% | IC50 (murine IL-11 [6]): 0.11 nM | Kd (murine IL-11 [7]): < 0.001 nM | Kd (human IL-11 [8]): 0.0016 nM | Kd (rat IL-11 [9]): 0.009 nM | Kd (cynomolgus IL-11 [10]): 0.35 nM
B1: TPP-29680 (antibody, human IgG1, lambda)
heavy: QVQLVESGGGVVQPGRSLRLSCAASGFTFSHYDMHWVRQAPGKGLEWVAVISYHGSVKFYADSVKGRFTISRDNSKNTLYLQMNSLRAEDTAVYYCARTPGFHFDYWGQGTLVTVSSASTKGPSVFPLAPSSKSTSGGTAALGCLVKDYFPEPVTVSWNSGALTSGVHTFPAVLQSSGLYSLSSVVTVPSSSLGTQTYICNVNHKPSNTKVDKKVEPKSCDKTHTCPPCPAPPVAGPSVFLFPPKPKDTLMISRTPEVTCVVVGVSHEDPEVKFNWYVDGVEVHNAKTKPREEQYNSTYRVVSVLTVLHQDWLNGKEYKCKVSNKQLPSPIEKTISKAKGQPREPQVYTLPPSRDELTKNQVSLTCLVKGFYPSDIAVEWESNGQPENNYKTTPPVLDSDGSFFLYSKLTVDKSRWQQGNVFSCSVMHEALHNHYTQKSLSLSPGK
light: QSVLTQPPSASGTPGQRVTISCSGSSSNIGSNYVSWYQQLPGTAPKLLIYYDDLRPSGVPDRFSGSKSGTSASLAISGLRSEDEADYYCSAWDDSLSGVVFGGGTKLTVLGQPKAAPSVTLFPPSSEELQANKATLVCLISDFYPGAVTVAWKADSSPVKAGVETTTPSKQSNNKYAASSYLSLTPEQWKSHRSYSCQVTHEGSTVEKTVAPTECS
notes: hIgG1, Lambda (HS variant)

Kd (murine IL-11 [11]): 0.6 nM | Kd (human IL-11 [12]): 7.3 nM | Kd (murine IL-11 [13]): 0.83 nM | Kd (human IL-11 [14]): 6.6 nM | Efficacy (%), RGA (murine IL-11 [15]): 90.8% | IC50, RGA (murine IL-11 [15]): 0.96 nM | Efficacy (%), RGA (human IL-11 [16]): 51.4% | IC50, RGA (human IL-11 [16]): 5.6 nM
B2: TPP-16478 (antibody, human IgG1, lambda)
heavy: EVQLLESGGGLVQPGGSLRLSCAASGFTFSSYGMHWVRQAPGKGLEWVSVISYDGSYKYYADSVKGRFTISRDNSKNTLYLQMNSLRAEDTAVYYCAAGVPDYWGQGTLVTVSS[omitted - human IgG1 constant region]
light: QSVLTQPPSASGTPGQRVTISCTGSSSNIGAGYDVHWYQQLPGTAPKLLIYSNNERPSGVPDRFSGSKSGTSASLAISGLRSEDEADYYCAAWDDSLNGPVFGGGTKLTVLGQPKAAPSVTLFPPSSEELQANKATLVCLISDFYPGAVTVAWKADSSPVKAGVETTTPSKQSNNKYAASSYLSLTPEQWKSHRSYSCQVTHEGSTVEKTVAPTECS
notes: hIgG1, Lambda; also called WT

IC50 (read off the curve) [17]: ~10 nM
B3: TPP-29536 (antibody, human IgG1, lambda)
heavy: EVQLLESGGGLVQPGGSLRLSCAASGFTFSSYGMHWVRQAPGKGLEWVAVISYDGSYKYYADSVKGRFTISRDNSKNTLYLQMNSLRAEDTAVYYCAAGVPDYWGQGTLVTVSSASTKGPSVFPLAPSSKSTSGGTAALGCLVKDYFPEPVTVSWNSGALTSGVHTFPAVLQSSGLYSLSSVVTVPSSSLGTQTYICNVNHKPSNTKVDKKVEPKSCDKTHTCPPCPAPPVAGPSVFLFPPKPKDTLMISRTPEVTCVVVGVSHEDPEVKFNWYVDGVEVHNAKTKPREEQYNSTYRVVSVLTVLHQDWLNGKEYKCKVSNKQLPSPIEKTISKAKGQPREPQVYTLPPSRDELTKNQVSLTCLVKGFYPSDIAVEWESNGQPENNYKTTPPVLDSDGSFFLYSKLTVDKSRWQQGNVFSCSVMHEALHNHYTQKSLSLSPGK
light: B2 light with T23S, A31S, G32D, N54E, A91S, D95S, N98S
notes: hIgG-lambda-HS (human IgG1 with Fc-silencing mutations)
